These results are taken from PMC4336329 (PLoS ONE, 2015).

The campaign covered roughly 310,000 compounds. About 2,200 (0.71%) showed an effect of 50% or more. Effects have a minus sign here. The list shows a part of the results.

This assay deals with human ether-à-go-go-related gene (hERG) potassium channel (human, UniProt Q12809). The experiment in a line: primary screen, population patch clamp on CHO cells stably expressing hERG.
Chain of human ether-à-go-go-related gene (hERG) potassium channel (Q12809 whole entry, looked up): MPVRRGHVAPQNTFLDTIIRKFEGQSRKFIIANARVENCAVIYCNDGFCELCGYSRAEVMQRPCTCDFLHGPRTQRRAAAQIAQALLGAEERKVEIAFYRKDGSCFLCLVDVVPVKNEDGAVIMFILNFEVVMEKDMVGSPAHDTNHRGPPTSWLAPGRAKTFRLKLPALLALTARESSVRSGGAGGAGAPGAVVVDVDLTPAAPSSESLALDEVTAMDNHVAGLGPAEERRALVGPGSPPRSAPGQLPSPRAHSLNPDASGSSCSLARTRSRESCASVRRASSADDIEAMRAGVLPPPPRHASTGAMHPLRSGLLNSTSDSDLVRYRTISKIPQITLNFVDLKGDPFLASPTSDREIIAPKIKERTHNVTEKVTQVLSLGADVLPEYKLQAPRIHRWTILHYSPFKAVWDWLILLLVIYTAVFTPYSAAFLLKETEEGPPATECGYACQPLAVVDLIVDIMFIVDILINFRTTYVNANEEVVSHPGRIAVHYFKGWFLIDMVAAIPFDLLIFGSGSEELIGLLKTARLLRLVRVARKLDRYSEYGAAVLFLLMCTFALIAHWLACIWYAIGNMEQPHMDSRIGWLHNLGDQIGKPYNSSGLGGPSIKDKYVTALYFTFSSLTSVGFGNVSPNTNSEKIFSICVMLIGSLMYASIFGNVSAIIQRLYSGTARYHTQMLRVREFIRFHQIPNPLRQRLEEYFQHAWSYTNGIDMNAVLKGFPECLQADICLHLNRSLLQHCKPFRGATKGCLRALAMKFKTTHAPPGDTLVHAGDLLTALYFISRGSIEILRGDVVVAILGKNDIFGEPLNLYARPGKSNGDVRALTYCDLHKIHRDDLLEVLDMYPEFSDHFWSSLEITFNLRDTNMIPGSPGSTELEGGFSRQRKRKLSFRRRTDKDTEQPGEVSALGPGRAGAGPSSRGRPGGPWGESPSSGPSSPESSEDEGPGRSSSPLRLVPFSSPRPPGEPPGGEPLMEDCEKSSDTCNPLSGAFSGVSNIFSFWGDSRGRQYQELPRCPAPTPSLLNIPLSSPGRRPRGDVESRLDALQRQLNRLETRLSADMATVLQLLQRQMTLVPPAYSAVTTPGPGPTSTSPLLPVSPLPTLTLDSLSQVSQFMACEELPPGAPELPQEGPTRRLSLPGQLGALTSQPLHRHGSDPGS
Regarding `O=C(NCCc1ccc(Cl)cc1Cl)c1cncc(Br)c1`, the “hERG current change (%, negative = inhibition) at 1uM” value turned out to be 9.91%. To `CCOc1ccc(Cc2c(Cl)nc(N)nc2Cl)cc1` belongs 12.9%; to `CCOc1ccc(N(C(=O)CNS(=O)(=O)c2ccccc2)C(CC)C(=O)NCc2ccco2)cc1` (centres unmarked), 4.35%.

For the compound `CCCC(NC(=O)c1ccccc1)c1nc2ccccc2n1Cc1ccc(C(=O)OC)o1` (centres unmarked), the “hERG current change (%, negative = inhibition) at 1uM” value came out at 1.44%. Next, `CC1CCN(S(=O)(=O)c2ccc(NC(=O)C3CC(=O)N(c4ccccc4)C3)cc2)CC1` (centres unmarked): 14.8%; `COc1cccc(C(=O)NC2CCN(CC(=O)Nc3c(C)cc(C)cc3C)CC2)c1`: 9.75%. Next, `O=C(c1ccccc1Cl)N1CCC(O)(c2cccnc2)CC1`: 10.3%. In the case of `O=C(COC(=O)C1CCC1)NCc1ccc(F)cc1`, the “hERG current change (%, negative = inhibition) at 1uM” value is on record as 14.2%. To `CCN1CCCC1CNC(=O)Cn1nc(C)n2c(cc3cc(F)ccc32)c1=O` (centres unmarked) belongs 14.8%; to `O=c1[nH]c(=O)n(Cc2ccccc2)c2nc(-c3cccs3)n(CCO)c12`, 6.81%. To `Cc1ccc(C(=O)NC(=S)Nc2ccc(N3CCOCC3)cc2)c(C)c1` belongs 3.56%; to `CC(=O)N(c1ccccc1C)C1CCCC1`, 12%; to `COc1cc(NC(=O)/C=C/c2ccccc2[N+](=O)[O-])cc(OC)c1`, 10.6%. Next, `CN(CC(=O)Nc1ccc(N2CCOCC2)cc1)C(=O)c1cc(F)c(F)cc1Cl`: -7.87%. Consider `CCOc1ccccc1NC(=O)C1CCC(CNc2c(N3CCOCC3)c(=O)c2=O)CC1` (centres unmarked), for which the “hERG current change (%, negative = inhibition) at 1uM” value was 6.67%. To `CN(Cc1cccs1)C(=O)COc1ccc(-c2nnco2)cc1` belongs 18.5%; to `CCc1ccc(OCCOCC(O)CNC(C)(C)C)cc1.Cl` (centres unmarked), 3.37%. With `Cc1cccc(C(=O)NCCNC(=O)c2ccco2)c1`, the “hERG current change (%, negative = inhibition) at 1uM” value is 14.2%. To `O=C(OCC(=O)N1CCc2ccccc21)c1ccccn1` belongs 10.7%; to `COc1cccc2c(C)c(C(=O)O)[nH]c12`, 0.894%. Next, `CC(c1ccccc1F)n1cc(C(=O)NCCc2ccco2)nn1` (centres unmarked): 8.31%; `O=C(Nc1ccccn1)c1ccc(Cl)s1`: 2.93%; `CC(=O)C1C(c2ccc(F)c(F)c2)NC(=O)NC1(O)C(F)(F)F` (centres unmarked): 11.4%. Next, `O=C(COc1ccc(F)c(Cl)c1)c1ccc[nH]1`: 6.57%; `N#CC1=C(N)Oc2n[nH]c(-c3ccccc3)c2C1c1cccnc1` (centres unmarked): 12.9%; `COc1cccc(N2CCN(c3ccc4nnc(CCC(=O)N5CCC(C)CC5)n4n3)CC2)c1`: -21.1%.

On to `CCN1C(=O)c2cccc3c(S(=O)(=O)NCc4ccccc4)ccc1c23`, for which the “hERG current change (%, negative = inhibition) at 1uM” value amounted to 5.16%.

For `CCn1c(SCC(=O)N(C)CC(=O)Nc2ccc(F)c(F)c2F)nnc1-c1ccco1`, the “hERG current change (%, negative = inhibition) at 1uM” value is given as 13.9%. On to `COc1ccc(-n2c(C)c([N+](=O)[O-])c3ccc(O)c(CN(C)C)c32)cc1`, for which the “hERG current change (%, negative = inhibition) at 1uM” value is reported as -17.9%.

With `Cc1ccc(Sc2cc(C(F)(F)F)nc(N(C)C)n2)cc1`, the “hERG current change (%, negative = inhibition) at 1uM” value is listed as 6.22%. To `CC(=O)Nc1ccc2c(c1)ncn2-c1ccc(C)cc1` belongs 0.47%. To `COCc1ccc(CN2CCC(Oc3ccc(C(=O)NCc4ccccn4)cc3)CC2)o1` belongs 17.6%. Next, `O=C(Cc1ccc(NC2=NC3CS(=O)(=O)CC3S2)cc1)NCc1ccccc1Cl` (centres unmarked): 14.4%. `COc1ccc(C(=O)N/C(=C/c2cccnc2)C(=O)Nc2cccc(C(C)=O)c2)cc1OC`: the “hERG current change (%, negative = inhibition) at 1uM” value was 8.63%.

Turning to `COc1ccc(-c2nc(NC(=O)c3[nH]c(C)c(C(C)=O)c3C)sc2C)cc1`, the “hERG current change (%, negative = inhibition) at 1uM” value was found to be 8%.

On to `Cc1cc(Nc2ccccc2)nc(N)n1`, for which the “hERG current change (%, negative = inhibition) at 1uM” value is on record as 5.79%. Next, `c1cncc(-c2nc(NCc3ccc4c(c3)OCO4)c3ccccc3n2)c1`: 8.36%. Next, `COc1cc(Cl)cc2c1Sc1ccccc1/C2=C/CCN(C)C.O=S(=O)(O)O`: 2.22%; `COc1ccc(NC(=O)Cn2c(=O)n(CCC(=O)NCC3CCCO3)c(=O)c3cc(OC)c(OC)cc32)cc1` (centres unmarked): 9.89%. Next, `Cc1occc1C(=O)NNC(=O)c1nn(C)c(=O)c2ccccc12`: 12.5%; `O=S(=O)(c1cccc2nonc12)N1CCN(c2ccc(F)cc2)CC1`: 5.98%. Turning to `Cc1ccc(OCC(=O)Oc2cccc(C)c2)cc1`, the “hERG current change (%, negative = inhibition) at 1uM” value amounted to 20%.

In the case of `Cn1cnnc1SCC(=O)Nc1ccc(Cl)cn1`, the “hERG current change (%, negative = inhibition) at 1uM” value stood at 8.94%.

With `O=C1N(c2cccc(Cl)c2)C(c2cccnc2)N2CCCN12` (centres unmarked), the “hERG current change (%, negative = inhibition) at 1uM” value is recorded as 6.2%.
